# Results taken from the supplement of paper PMC11417369.
# ± gives the standard deviation of the averaged measurements. Some of the results follow.
# System: PfAP2-G AP2 domain (GST-tagged)
# Assay: gcPBM binding intensity (ln(normalized median fluorescence intensity)); higher = stronger DNA binding
# Summary of the method: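 GST-tagged P. falciparum DNA-binding domains produced in E. coli were incubated for 1 h on an Agilent 4 × 180k array of primer-extended double-stranded 36-bp intergenic genomic probes with negative controls. Binding intensity is the highest Masliner-normalised natural-log median intensity across replicate spots of either probe orientation, with bound protein detected by Alexa488 anti-GST antibody at 488 nm.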
row,Sequence,gcPBM binding intensity (ln)
1,TATATATTTATTTATAGTACACTATTTATGAAAACC [XGTACX_site3062],11.3 ± 1.1
2,CATTATTATTAACATACACACGTGTTATATACCCCC [CACACA_site9365],11 ± 0.61
3,TAACATAAATTTAGGAGTACACTTTTTATACATACA [XGTACX_site4066],11.7 ± 1
4,AAAAATTTTTTTTTTTTTTTAAATAATAAAAATGAA [CACACA_negctrl_site1435],9.63 ± 0.099
5,TATTATTATTTTATGGTGCAAAAAAAAAAAAAAAAA,10.1 ± 0.61
6,AACATACGACAATACGCACACATATCTGTACATATT [CACACA_site5115],11.3 ± 0.65
7,TTTATATATTTTGTCGTGCACATTTGGAAAATTACA [GTGCAC_site9776],10.4 ± 0.4
8,AAATTCACAATGTTTGGTACACATAAAAAAAAAAGA [XGTACX_site7109],11.2 ± 0.9
9,TATTTTTAAAATTAAATGAATAAATAAATAAATATA [XGTACX_negctrl_site553],9.54 ± 0.11
10,AATAAAATGGAATACGGTACACATAATCCTAAAATG [XGTACX_site926],11 ± 0.63
11,ATATTATAAAATAAAAGTACACAATTATATATATAT [XGTACX_site8812],11.4 ± 0.93
12,TTTATATTTATTGTTGTGCACAGAACCATATTCGTT,10.6 ± 0.42
13,TATCACTATAGACAAGCATGCATATGTACTAATATC [TGCATGCA_site1020],11 ± 0.79
14,TGCAGTCTGGAGAAACGTACACAGTATCTGGTAACA [XGTACX_site2014],11.3 ± 0.79
15,ATGTGTATAATTAAATGTACATATATATATATATAT [XGTACX_site829],11.2 ± 0.42
16,CTTTTATTCAAAAGATGTACTTAAATATATATCTAA [XGTACX_site4326],11.2 ± 0.76
17,ATATATATCGGACACACACACATGTTTTAAAACTAT [CACACA_site4218],10.9 ± 0.64
18,TTAAACTTGAGACACACACACACACGGATATAAAAA [CACACA_site6495],10.3 ± 0.18
19,ATTTGAAATTGGTAGACACACAATAAAATATCAAAA [CACACA_site447],10.2 ± 0.33
20,AAAAAGTTATTATGAACACACATTTATTATAGTCAT [CACACA_site6838],9.94 ± 0.014
21,CATATAAATATTTGTGCACACAATTATTAATAATTA [CACACA_site3884],10.6 ± 0.34
22,ATATATATAAAATGTTGTACATATATATAAATAATA [XGTACX_site1661],11.1 ± 0.73
23,TTAAAATAGGGCGAAGAAATTTTCTGTAAACATTTG [CACACA_negctrl_site1010],9.985 ± 0.078

row,Sequence,gcPBM binding intensity (ln)
1,ATATGCTTATATTATATATATAAGTCTATATATTTT [XGTACX_negctrl_site349],9.58 ± 0.11
2,GGGTTTTTAAAATGTAGTACATATGTAAACATCAAA [XGTACX_site1262],11.4 ± 0.94
3,CTAAAATACAGACACACACACACATATATATATATA [CACACA_site4150],10.2 ± 0.31
4,TGAATATTTCTATATACACACATATATATATATATA [CACACA_site3451],10.2 ± 0.49
5,TTTAATAATAATAAAAGTACACAAATATAAAGGAAA [XGTACX_site5203],11.5 ± 0.69
6,CATAAATAAGCTTTAGTGCATTATATTTAAATTTTT,9.725 ± 0.049
7,ATAAAATGAACCTTTTGTACATATATATATATATAT [XGTACX_site4610],10.8 ± 0.52
8,ATATTATATATATATAAACACACAAATATTTTTATA [CACACA_site8486],9.97 ± 0.014
9,AACATCTCATATCGTACTACACTCATATATATATAT [XGTACX_site170],11.1 ± 0.58
10,TCACGTATGTATATTACACACATACATATTATTCAC [CACACA_site4276],9.975 ± 0.064
11,AGGTTTTCTTAAATAGTGCATTATAACAAAAATAAA,10.2 ± 0.35
12,TTTCATTTGTCGTTATGTACTTATTAAATATTATTA [XGTACX_site7709],11.4 ± 0.81
13,AAACAATAAAAGATTACACACATATATAGCATCTAT [CACACA_site5012],9.63 ± 0.38
14,TAAAGTAAAGACATACTTATTTTCCATCCACTTCTT [CACACA_negctrl_site1288],10 ± 0.18
15,CACATACAGACATACACACATACACATATACGCATA [CACACA_site1745],10.2 ± 0.13
16,TCTGTATATTTCGCGCGTACGAACAAATTGATAATT [XGTACX_site7965],11.2 ± 0.76
17,ATATAATATGGTATTACACACTGTTAAAAGTATGGC [CACACA_site5190],10.11 ± 0.049
18,ATATATATTTTTATAACACACAATGAAGTACATTAC [CACACA_site8270],11.4 ± 0.96
19,TTTATATTTATATATACACACATATACATCCTATTT [CACACA_site3079],10 ± 0.16
20,ATATATATGGAAACAGTGCAATACATATATATATAT,10.3 ± 0.42
21,ATATAGAACACCTGTGCATGCAAGTGCTAAAAAATT [TGCATGCA_site213],10.2 ± 0.2
22,TAATATTATTTAGAGTGTACTCATAAATCAACAAAA [XGTACX_site5269],11.6 ± 1.1
